The record followed here is the supplement of paper PMC7826260.

Some of the results follow. Viral Rep nickase domains cut single-stranded DNA in vitro for 1 h at 37 °C with 3 µM enzyme; only the middle of the 90-letter strands is printed. Values are log2 of uncut reads against the no-enzyme pool; more negative means more cut, near 0 not cut, and no call is made. Because reads are shares of a total, they shift together; values above 0 arise when much of the pool is cut.

The test system of the assay is T1, Rep nickase domain of tomato golden mosaic virus.
T1 sequence (residues 1-124 of Rep, tag left off): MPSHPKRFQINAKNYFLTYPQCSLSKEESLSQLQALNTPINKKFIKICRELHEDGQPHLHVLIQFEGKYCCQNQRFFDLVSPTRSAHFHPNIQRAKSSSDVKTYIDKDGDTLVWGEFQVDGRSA
Description: uncleaved DNA left, log2 of reads against the no-enzyme library (log2 ratio); higher = less cleavage (more negative = more Rep cleavage of the k-mer); sequences stand for … in CTCGTCCG…ACCGGAGA
Here is the method: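 A pool of 90-nt single-stranded DNAs with seven random bases just before the constant AC of the nick site (name = the seven bases) was cut by 3 µM recombinant His6-SUMO-tagged Rep nickase domain (300 nM DNA, 50 mM HEPES pH 8.0, 50 mM NaCl, 1 mM MnCl2, 1 h, 37 °C, three replicates). Uncut DNA was amplified and sequenced.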
As to CCAACCT, the “uncleaved DNA left (log2)” value came to 0.0331.

CGTACGC: the “uncleaved DNA left (log2)” value was -0.0277. On to CAGGGAT, for which the “uncleaved DNA left (log2)” value is -0.0585. Take AGCGAGA: the “uncleaved DNA left (log2)” value stood at 0.0664. As for GAAAAAT, the figure is -0.0895; as for CAGTAGG, -0.0358.

Turning to GACCCGG, the “uncleaved DNA left (log2)” value is 0.0761.

CCCGGAG: the “uncleaved DNA left (log2)” value turned out to be 0.0652. As for AGGCTTC, the “uncleaved DNA left (log2)” value was -0.0826. As for TAGATAT, the “uncleaved DNA left (log2)” value is -0.0569. As for CCAGTCT, the figure is -0.178; as for CTACATT, -0.305; as for CGGTTCC, -0.0821. Regarding CGAGAGG, the “uncleaved DNA left (log2)” value amounted to 0.231. As to ACACCGA, the “uncleaved DNA left (log2)” value was -0.0797.

For TGTTCTG, the “uncleaved DNA left (log2)” value was -0.0752. The figure for ATCTGTA is 0.103; for ATTTGGT it is -0.1; for AAGAAGT it is 0.088. Consider TGTCGGC, for which the “uncleaved DNA left (log2)” value worked out at 0.0116.

On to CACCTTC, for which the “uncleaved DNA left (log2)” value is -0.0465. In the case of GTCTTTT, the “uncleaved DNA left (log2)” value was 0.0725. For TTAGACT, the “uncleaved DNA left (log2)” value was -0.0209. Consider GAGCGAC, for which the “uncleaved DNA left (log2)” value turned out to be 0.0447. As to CCTGACC, the “uncleaved DNA left (log2)” value turned out to be 0.0102. Consider TGTTTGC, for which the “uncleaved DNA left (log2)” value was determined as 0.0149. As to CAGTTCA, the “uncleaved DNA left (log2)” value is -0.136.

ACGGAGC: the “uncleaved DNA left (log2)” value was -0.0176. The figure for GCGAGTA is 0.117. With GCCGTGG, the “uncleaved DNA left (log2)” value came out at 0.258. TAGGGTC: the “uncleaved DNA left (log2)” value was determined as 0.0739. The figure for GCAAGGC is 0.0145. Consider CCGATGA, for which the “uncleaved DNA left (log2)” value is -0.0154.

For the sequence GCGTGTG, the “uncleaved DNA left (log2)” value was 0.0244. On to GATCCCC, for which the “uncleaved DNA left (log2)” value was 0.0851. As for GTAGGGG, the “uncleaved DNA left (log2)” value turned out to be 0.141. As to AATTGCG, the “uncleaved DNA left (log2)” value amounted to 0.123. Regarding AGATTAG, the “uncleaved DNA left (log2)” value stood at 0.0754. As to AGGTTTA, the “uncleaved DNA left (log2)” value came out at 0.0312. Take CAACTTA: the “uncleaved DNA left (log2)” value was determined as 0.00874.
